In patent publication US20130344098A1:

Key:
[1] = target: anti-Fel d1 mAB 6F9; experiment: sandwich ELISA: mAB 6F9 coated, Fel d1 protein in doubling dilutions 80-0.16 ng/ml, detected with biotinylated mAB 3E4; Fel d1 (ng/ml) at OD50%
[2] = target: Fel d1 specific IgE on basophils of cat allergic donors; experiment: cell-based or functional assay

| EC50 [1] | Percentage of degranulation (CD63 on basophils), No IgG [2] | Binder |
| --- | --- | --- |
| 6.7 ng/mL | – | FELD1-10aa-HC (protein, Felis domesticus, not shown: small tags and cut ends) chain (part 1 of 2): VKMAETCPIFYDVFFAVANGNELLLDLSLTKVNATEPERTAMKKIQDCYVENGLISRVLDGLVMTTISSSKDCMGEAVQNTVEDLKLNTLGRGGGGSGGGGS[letters of about 80 residues omitted] chain (part 2 of 2): GGC |
| 7.9 ng/mL | 33% | FELD1-15aa-HC (protein, Felis domesticus, not shown: small tags and cut ends) chain (part 1 of 2): VKMAETCPIFYDVFFAVANGNELLLDLSLTKVNATEPERTAMKKIQDCYVENGLISRVLDGLVMTTISSSKDCMGEAVQNTVEDLKLNTLGRGGGGSGGGGSGGGGS[letters of about 80 residues omitted] chain (part 2 of 2): GGC |
